The supplement of paper PMC11417369
The other results are listed elsewhere or left out.

test system: PF3D7_0420300 AP2 domain 1 (GST-tagged); assay: gcPBM binding intensity (ln(normalized median fluorescence intensity)); higher = stronger DNA binding
Summary of the method: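 Using an Agilent 4 × 180k array, primer-extended double-stranded 36-bp intergenic genomic probes and negative controls were exposed for 1 h to GST-fused P. falciparum DNA-binding domains expressed in E. coli. Binding was carried out in 1× PBS with 1% milk, 0.2 mg/ml BSA, 0.5% salmon testes DNA and 0.03% Triton X-100, and protein was detected with Alexa488 anti-GST antibody and a 488 nm scan. Binding intensity is the highest Masliner-normalised natural-log median intensity across replicate spots of either probe orientation.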

Sequence	gcPBM binding intensity (ln)
TATAATCATAAATACACACACATATATATATATATA [CACACA_site5224]	9.54
GTTCAATTATTTTTATGTACATATATTTTTTTCTTT [XGTACX_site2505]	9.66
TATACATAGATATATACACACATATATTTATATACA [CACACA_site6328]	9.55
ATTACAAAAAAAAAAAAAAAAAAAAAAAAAAAAAAA [CACACA_negctrl_site448]	8.6
ATATGTATATATATTTGTACGTAAAATGAAATCTAA [XGTACX_site213]	9.28
ATTTCACAGAAACACACACACAATATATTTCCTTTT [CACACA_site3904]	9.87
GAAAAATGAAGAGAACAAAATTTTATGATATATATA [GTGCAC_negctrl_site231]	9.19
CCTTGAACCCCACTAACACACACACCCACGCTCAGA [CACACA_site8976]	9.84
TTTCATAAATAAATATGTACATAATTAATAATAAAT [XGTACX_site5882]	9.07
AAGAAAATTAAATTAACACACATAAATATGTAAATA [CACACA_site6882]	9.42
CCAATAATATATAGAAGTACAGAAAAAAAAAAAAAA [XGTACX_site2049]	9.07
CCCTCTTCTCTCATATCACACATGTCATCCTTATCC [CACACA_site5078]	9.55
GCACGCTGTATGAATGCACACATTCATAGAATTGCT [CACACA_site8852]	9.22
ATCAAAATGTTAAAGATACACACCTAACAAACACAA [CACACA_site955]	9.7
TTATATATATAGAAGTGTACAAAATTTCCTAGACCT [XGTACX_site3900]	9.39
TATAAATATTTATAAACACACAAATATATATATTTA [CACACA_site27]	9.35
TATCGACATTTCATTTGTACATATATACATATATTT [XGTACX_site3346]	9.4
AAATAGTATATAATATGTACATACATAAAAATGTAT [XGTACX_site3524]	9.2
ACCTATGTATATTATACACACTCCAAACTATTATTT [CACACA_site1817]	9.63
AAAGGTAAGCAGAATAGTACAGAAGAAAAAATATTT [XGTACX_site2941]	9.61
TTTTGTTTGTTCGTGACTACATTATGTTGTAAATAC [CACACA_negctrl_site604]	9.3
CAACATTTGAGACACACACACATACAAACAAACAAA [CACACA_site7538]	10

Sequence	gcPBM binding intensity (ln)
ATCAAAAAAAAAAAATTTTTTTTTTTGTTTGTTTCC [CACACA_negctrl_site1042]	8.99
TATCCTATAAATAATACATGCATATATATATATATT [TGCATGCA_site638]	9.14
TTAAGAAGTTCTAAATGTACATACATAACCACGTTA [XGTACX_site7514]	9.07
ATAATATTTTCTTCTTATTGAATGCTTTAAATTTAC [CACACA_negctrl_site1273]	9.24
GGGAAATATTGAAACACACACGAACGCACGTATTTC [CACACA_site6258]	9.54
TTAAACCGTGGGAGCACACACACACCCCCACCCATA [CACACA_site331]	10.2
ACAAATAAGTTTTGTAGTACTGTGTATATATATATA [XGTACX_site6901]	9.28
TAATGAAATATACAGAGTACATTCTGTATATAGGAT [XGTACX_site7691]	9.35
GCATAAGAAAATAATTGTACAATTTACATACATAAA [XGTACX_site8286]	9.25
TATATATGTATATATATAAATATATATATATATATA [TGCATGCA_negctrl_site605]	8.87
TACTCAAAAATTAATTAGCATAATATATATAAAAAT [GTGCAC_negctrl_site613]	9.17
TATAAATATATATACACACACACATTAATACATATA [CACACA_site3488]	10.2
TTGTACGCAAAAAAAAAAAAAAAAAAATTAAAATTT [TGCATGCA_negctrl_site586]	8.63
TTTTTCTCTTTAAGGTGTACAATAATACAGTAACCA [XGTACX_site300]	8.9
ATATTAGTAACACAGACACACAAAAAAAAAAAAAAA [CACACA_site2176]	9.02
AGGAAAATACCTTAATGTACATAGAAAAGTAACATT [XGTACX_site8011]	9.33
TTTTTTATTATCAAAACATGCATTTTTTAAATGGAA [TGCATGCA_site557]	8.76
CACTTAACACAAGAGTGTACACATATATATATATAT [XGTACX_site686]	9.33
GTTATTGAAAAAATAGTGCAATATAACAAAGTAAAA	9.41
AAATAAAACAAACACACACACACATACACAAAAAAA [CACACA_site3849]	10.2
TAATTTCTTATGTATTGTACAAATAATATATGATAT [XGTACX_site611]	9.1
TATATATATATATGTACACACATATATACCTTTCAT [CACACA_site2679]	9.38

Sequence	gcPBM binding intensity (ln)
TATATATTTCGGTGTGCACACTTTTTATTTTTATCC [CACACA_site1726]	9.82
GGAATGTAGGGTTTTACCAAAATAAAAATAACCATA [XGTACX_negctrl_site492]	9.19
ATAAAATACCTATAAACACACATATAAACAGACATA [CACACA_site7213]	10
AATATATACAATATATGTACATATATATACACATAT [XGTACX_site4190]	9.33
CTTTTATTAAAATTCACACACATAAACTTTTATAAA [CACACA_site7027]	9.25
ACAATAAAAATTTATGCATGTGAATTGAAAAAAAAA [TGCATGCA_site1037]	9.13
CTTATATATATATCATGTACTTATGTATTTAAGAAT [XGTACX_site3307]	9.12
TTTATTGACAATTTATGTACATATAATTGAAAAATA [XGTACX_site6634]	8.9
TTTGTGATATTATATTGTACCCTATATTTATTATAA [XGTACX_site4240]	9.56
GAATGGACGTTAGGGGGTACGTATAAAATTTATCAA [XGTACX_site683]	9.48
TCACCTATTTTTAACTGTACTGAAATGATATATATA [XGTACX_site1366]	9.31
TAATGAAATTGTAGTAGTACCTTCTTATAAATAAAA [XGTACX_site6747]	8.88
TATAAAAAAAAAAAATATATATATATATAAATATAA [TGCATGCA_negctrl_site367]	8.98
TAAGAAAAAAAAAAAAAAAAAAAAAAAAAAAAAAAA [CACACA_negctrl_site760]	8.53
TAAAAATATTTTCATTGTACATATATATAAATATAT [XGTACX_site1123]	9.01
ATTTGTTACGGACATGCATGCGAATCAGGGTATATA [TGCATGCA_site154]	9.41
TACATATATATATATATATATATATATATCATTATG [XGTACX_negctrl_site293]	9.04
TTGAGGAAATAACAGTGTACAAACAAATTATTACCA [XGTACX_site7082]	9.4
ATGGTACATACATACACACACACAAAAAAAAAAAAA [CACACA_site1578]	9.95
GTTCAATTTTTAGGAAGTACAAAAAAAAAAAAGAAA [XGTACX_site7286]	8.99
CAAACCTATATACAAACATGCAATCCACATATTGGT [TGCATGCA_site756]	9.51
TATATTAGTGTTGACACACACAAAAAAAAAAAAAAA [CACACA_site1396]	9.22

Sequence	gcPBM binding intensity (ln)
TATATTTGTATTGTTTGTACTTATATGAATTTATAT [XGTACX_site4228]	9.46
GACATTGATACCAGTAGTACCTATAGATGTTTGTTT [XGTACX_site5736]	9.55
TTATGGAATAATCACGTACACACAAGAAAAAAAAAA [CACACA_site526]	9.75
TTATAGAAAATGGAATAGAATGGAATGGAAGAAATA [CACACA_negctrl_site1086]	9.48
ATTATATATAAGAAGAGTACTGAATATGTGCAATAT [XGTACX_site4471]	9.55
TATATACACCCACATACACACAAATAAAAAAACACC [CACACA_site3414]	9.98
AAATAATGTTTGAATTGTACACATATTTGTGTTTCT [XGTACX_site4603]	9.53
ATGTTGCACAGTGGAAGAATTAAAAATAAATAAATA [XGTACX_negctrl_site581]	9.03
GTGGAACGTATATTTTCACACACTCTCAAAAGTACA [CACACA_site8722]	9.28
GTGGAACATATGAACTCACACACATTTTCACTTAAA [CACACA_site3683]	9.48
ATGAACATATCAATTCTCAAAATAGGATGAGAGCAT [CACACA_negctrl_site230]	9.26
AATTTTTGTATTTTTAGTACTTAATTTCAAAATAAC [XGTACX_site4234]	8.98
AATATTATAAATGTCACACATATATTCAAATATATA [CACACA_site4736]	9.14
TTTGTATATTATTTTAGTACATAACATTGAAGATAT [XGTACX_site6680]	9.03
ATATAAGGATTAATATGTACATATATATATATATTT [XGTACX_site1390]	9.27
TATTTTGAAACTAAAAGACATAGAGAAAACAAAAAA [CACACA_negctrl_site1306]	9.25
TAATAAATACAAAAATGTACACACATATATATATTT [XGTACX_site7430]	9.51
TATATATATATTATCACACACTCACGTTTGACAAAA [CACACA_site689]	9.32
TTATTTATTTATTCATGTACGTGTATTTTTTAAAAA [XGTACX_site7915]	9.16
ATTGGGTACAAATACACACACATATATATATTAAGA [CACACA_site5330]	9.92
AGTGTCATATTAACACGTACATAATTATTGTAGAGA [XGTACX_site568]	9.15
GTATTTTTACAAATTTGTACATATATATGAATATAC [XGTACX_site6717]	9.35
